# In PubChem BioAssay AID651820 (National Center for Advancing Translational Sciences (NCATS), 2012):
# “And” between values parts separate entries of the source, which are not always exact repeats. Identical values can stand only once. Out of some 340,000 compounds screened, about 12,000 (3.5%) were called active. This list was built around the results that the source calls inconclusive (neither active nor inactive); the mix of calls is not that of the screen. The call rests on the fitted dose curve; in most records, active means well fitted inhibition curve with a large enough effect; inconclusive means small, poorly fitted or top-dose-only effect, or another doubt; inactive means no such curve, though single readings can be large or run the other way. A potency beside an inconclusive call is a rough fit, not a confirmed value.
# Test: qHTS Assay for Inhibitors of Hepatitis C Virus (HCV)
# Details: Huh7.5.1 HCVcc-Cre (HCVcc is cell-culture hepatitis C virus) infection, luciferase reporter, 44 h; series mostly up to 41.8 µM
# Method in brief: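 Compounds are dispensed onto cells plated 4 h earlier at 1,000 per well, with HCVcc-Cre virus (about 0.5 moi) added next. Following 44 h of culture, luminescent signal is measured for 15 sec after 15 min with substrate at room temperature.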
# Potency means the concentration at half of the fitted maximal effect; tags describe the fitted curve by direction and shape.
row,SMILES,Potency
1,c1ccc2c(NCCc3c[nH]c4ccccc34)c3ccccc3nc2c1,active: 14.1 µM
2,COc1ccccc1[C@H]1C(c2cccc(Cl)c2)=NN(c2ccccc2)[C@@H]1CO,"inconclusive: 12.6 µM [inhibitor, partial curve]"
3,Cc1ccc(-c2csc3ncnc(-n4nnc5ccccc54)c23)cc1C,"inconclusive: 10 µM [inhibitor, partial curve]"
4,Cc1cc(OCC(=O)N2CCC(C(=O)O)CC2)c2c(C)cc(=O)oc2c1,"inconclusive: 0.891 µM [inhibitor, partial curve]"
5,COc1cc(NC(=O)Cc2ccccc2)cc(OC)c1,inactive
6,COc1ccc(CCC(=O)NNC(=O)c2ccccn2)cc1OC,"inconclusive: 31.6 µM [inhibitor, single point]"
7,O=C(N/N=C(\Cc1ncc[nH]1)c1ccccc1)c1cccnc1,"inconclusive: 7.94 µM [inhibitor, partial curve, poor fit]"
8,O=C(CN1CCN(S(=O)(=O)c2ccccc2)CC1)Nc1ccc(Cl)c([N+](=O)[O-])c1,"inconclusive: 31.6 µM [inhibitor, single point]"
9,Cn1cc(C(=O)OCC(=O)NC2(C#N)CCCCC2)c2ccccc21,"inconclusive: 31.6 µM [inhibitor, single point]"
10,COc1ccccc1OCCCCN1CCN(c2ccccc2OC)CC1,"inconclusive: 28.2 µM [inhibitor, single point]"
11,CCC(C(=O)NN1C(=O)c2ccccc2C1=O)c1ccccc1 (stereo not drawn),inactive
12,COc1ccc(NS(=O)(=O)c2ccc(NC(=O)c3ccccn3)cc2)cc1,"inconclusive: 10 µM [inhibitor, partial curve]"
13,Cn1cnc([N+](=O)[O-])c1S(=O)(=O)Oc1ccc(Cl)cc1,"inconclusive: 31.6 µM [inhibitor, single point]"
14,Cc1cc(C)c(C)c(S(=O)(=O)N2CCN(C(=O)c3ccccc3OCc3c(C)noc3C)CC2)c1C,"inconclusive: 22.4 µM [inhibitor, single point]"
15,CCCCCCCCC/C(=N\O)c1ccccn1,"inconclusive: 7.94 µM [inhibitor, partial curve]"
16,Fc1ccc(N=C2NN=C(c3cc(F)ccc3F)CS2)cc1,"inconclusive: 10 µM [inhibitor, partial curve]"
17,CC1(C)CC(=O)C=C(Nc2ccc3c(c2)OCCO3)C1,inactive
18,CC1=C(C)CC(C(=O)NNC(=O)c2ccccc2)C(C(=O)O)C1 (stereo not drawn),inactive
19,C=C(C)Cn1c(SCC(=O)NCc2ccco2)nc2sc3c(c2c1=O)CCC3,active: 8.91 µM
20,COc1ccc(CCNc2nc(C)cc(C)n2)cc1OC,inactive
21,CCOc1ccccc1C(=O)NC(C(=O)N(C)Cc1ccc2c(c1)OCO2)C(C)C (stereo not drawn),"inconclusive: 31.6 µM [inhibitor, single point]"
22,Cc1c(NC(=O)c2ccc3c(c2)C(=O)N(CC2CCCO2)C3=O)cccc1C(=O)O (stereo not drawn),inactive
23,CN(CC(=O)Nc1cccc(F)c1)C(=O)c1ccc(C2SCCS2)cc1,"inconclusive: 10 µM [inhibitor, partial curve]"

row,SMILES,Potency
1,Cc1cc(NCc2ccccc2)nc2ccccc12,"inconclusive: 14.1 µM [inhibitor, single point]"
2,CC(OC(=O)C1CCN(S(=O)(=O)c2ccc3c(c2)OCCO3)CC1)C(=O)N(C)c1ccccc1 (stereo not drawn),"inconclusive: 31.6 µM [inhibitor, single point]"
3,COc1ccc(-c2cn3c(C)c(C(=O)N4CCc5ccccc5C4)sc3n2)cc1,"inconclusive: 22.4 µM [inhibitor, single point]"
4,COc1cc([N+](=O)[O-])ccc1NC(=O)Nc1nc2c(s1)CCCC2,inactive
5,CCc1cccc(Nc2c([N+](=O)[O-])cc(C(=O)N3CC(=O)Nc4ccccc43)cc2[N+](=O)[O-])c1,active: 14.1 µM
6,Cc1cc(=O)oc2cc(OCc3nnc(-c4ccccc4Br)o3)ccc12,inactive
7,Cc1ccc2nc(Nc3nc(CSc4nnnn4-c4ccccc4)cc(=O)[nH]3)nc(C)c2c1,"inconclusive: 2.82 µM [inhibitor, partial curve, poor fit]"
8,NC(N)=N/N=C/c1ccc(OCc2ccc(Cl)cc2)cc1,"inconclusive: 31.6 µM [inhibitor, single point]"
9,CC(C)c1cc(C(=O)N2CCCC(CCC(=O)N3CCN(c4ccccn4)CC3)C2)no1 (stereo not drawn),"inconclusive: 11.2 µM [inhibitor, partial curve]"
10,Cc1cc(/C=C2\Cc3ccccc3C2=O)c(C)n1-c1ccccc1,"inconclusive: 31.6 µM [inhibitor, single point]"
11,CC(=O)c1c(C)[nH]c(C(=O)OC(C)C(=O)Nc2cc(S(=O)(=O)N3CCCCC3)ccc2Cl)c1C (stereo not drawn),"inconclusive: 11.2 µM [inhibitor, partial curve]"
12,CSc1ccccc1OCc1cc(C(=O)N(C)C2CCCc3ccccc32)no1 (stereo not drawn),"inconclusive: 31.6 µM [inhibitor, single point]"
13,Cc1cccc(N2CCN(C(=O)C3CCC(CNS(=O)(=O)c4cccs4)CC3)CC2)c1C (stereo not drawn),active: 7.94 µM
14,Cc1cccc(C)c1Nc1nnc(SCC(=O)Nc2cc(S(=O)(=O)N3CCCCC3)ccc2Cl)s1,"inconclusive: 11.2 µM [inhibitor, partial curve]"
15,Cn1cccc1/C=N/n1c(-c2ccc(C(C)(C)C)cc2)n[nH]c1=S,"inconclusive: 11.2 µM [inhibitor, partial curve, poor fit]"
16,Cc1cc(NC(=O)CSCC(=O)Nc2ccccc2Oc2ccccc2)no1,"inconclusive: 31.6 µM [inhibitor, single point]"
17,CC(C)CCOc1ccc(C(=O)NN2C(=O)NC3(CCCCC3)C2=O)cc1,inactive
18,COc1ccc2nc(N3CCN(C(=O)c4ccc([N+](=O)[O-])o4)CC3)sc2c1,"inconclusive: 1.26 µM [inhibitor, full curve, poor fit]"
19,O=C(CSc1nc2ccccc2c(=O)n1-c1ccc(F)cc1F)Nc1ccc2c(c1)CCC2,"inconclusive: 10 µM [inhibitor, partial curve]"
20,CCCC1=Nc2cc(C(=O)NCCN3CCOCC3)ccc2Sc2ccc(C)cc21,inactive
21,Oc1[nH]c2ccc(Br)cc2c1N=Nc1ccc(C(F)(F)F)cn1,"inconclusive: 31.6 µM [inhibitor, single point]"
22,Cc1ccc(S(=O)(=O)N(C)CCCC(=O)Nc2cc(C)ccc2C)cc1,"inconclusive: 25.1 µM [inhibitor, single point]"
23,O=C(O)/C=C/C(=O)NC1CC1,inactive

row,SMILES,Potency
1,COc1ccc(Sc2ccc(-c3nc4cnccn4c3NC3CCCCC3)cc2OC)cc1,inactive
2,CCOc1cccc(CN2CCN(CCCc3ccccc3)C(CCO)C2)c1O (stereo not drawn),"inconclusive: 31.6 µM [inhibitor, single point]"
3,CCOc1ccc(NC(=S)NNc2ccnc3cc(Cl)ccc23)cc1,active: 3.16 µM
4,NC1=NC(c2ccc(F)cc2)n2c(nc3ccccc32)N1 (stereo not drawn),"inconclusive: 3.16 µM [inhibitor, single point]"
5,Cc1ccc(/C=N/NC(=O)c2ccc(N(C)S(=O)(=O)c3ccccc3)cc2)cc1,"inconclusive: 31.6 µM [inhibitor, single point]"
6,Cc1ccc(C(=O)Nc2ccc(S(=O)(=O)N3CCc4ccccc43)cc2)o1,"inconclusive: 25.1 µM [inhibitor, single point]"
7,O=C(CSc1nc2nn(-c3ccccc3)c(=O)c-2c2n1CCCCC2)Nc1ccccc1[N+](=O)[O-],"inconclusive: 2.82 µM [inhibitor, full curve]"
8,O=C(Nc1c(C(=O)O)[nH]c2ccc(F)cc12)c1cccc(C(F)(F)F)c1,inactive
9,O=C(NCC1CCCO1)c1cc(-c2ccc(Cl)cc2Cl)on1 (stereo not drawn),inactive
10,O=C(N/N=C/c1ccc(-c2cccc([N+](=O)[O-])c2)o1)[C@H]1C[C@@H]1c1ccccc1,"inconclusive: 8.91 µM [inhibitor, partial curve]"
11,CC(C)(CC(=O)OCC(=O)Nc1ccccc1F)CC1=NS(=O)(=O)c2ccccc2N1,inactive
12,CCOc1cc(C(=O)Nc2ccccc2N2CCN(S(C)(=O)=O)CC2)cc(OCC)c1OCC,"inconclusive: 12.6 µM [inhibitor, partial curve] and inconclusive: 3.55 µM [inhibitor, full curve, poor fit]"
13,CCOc1ccc2[nH]c3c(NCCc4ccc(OC)c(OC)c4)ncnc3c2c1,active: 12.6 µM
14,Cc1csc2nc(O)c(C(=O)NC3CCCCCC3)c(=O)n12,"inconclusive: 22.4 µM [inhibitor, single point]"
15,CCOC(=O)C(C)Sc1nc2ccccc2c(=O)n1CC1CCCCC1 (stereo not drawn),"inconclusive: 28.2 µM [inhibitor, single point]"
16,CC(Oc1ccc(C(C)(C)C)cc1)C(=O)NCC(c1ccco1)N1CCCC1 (stereo not drawn),"inconclusive: 35.5 µM [inhibitor, single point]"
17,CCOc1cc(C(=O)OCC(=O)c2c(N)n(C)c(=O)n(C)c2=O)cc(OCC)c1OCC,"inconclusive: 1.12 µM [inhibitor, full curve]"
18,COc1ccc(CNC(=O)CSc2nc(-c3ccccc3)cc(-c3cccs3)c2C#N)cc1,inactive
19,CC12CN3CC(C)(CN(C1)C3c1cccs1)C2=O (stereo not drawn),inactive
20,Cc1nccn1CCCN1C(=O)CNC1=S,inactive
21,Cc1ccc(C(=O)N2CCN(S(=O)(=O)c3ccc(Br)cc3)CC2)o1,inactive
22,CCCCN(CCCNC(=O)C1CCN(C(=O)c2cc3sccc3n2C)CC1)Cc1ccccc1,"inconclusive: 22.4 µM [inhibitor, single point]"
